Where a chain is given by its changes, count along the chain named. No constants are given. Whether binding was seen depends on the method and setting. Binding seen in cells or lysates may run through a third protein. Some results given as binding are weak or reduced against the parent protein; the word gives no strength. For some assays here: Tags and fused reporters may be left off the sequences shown. Each block holds one substance with its values, some of them ahead of it.
What was measured:
[1] = biological target: T1, endogenous ELL (human (endogenous in 293T)) (UniProt P55199); experiment: co-sedimentation; nuclear extract of 293T cells on a 4–20% glycerol gradient, 40K RPM, 8 h, 4°C; fractions immunoblotted
T1 sequence: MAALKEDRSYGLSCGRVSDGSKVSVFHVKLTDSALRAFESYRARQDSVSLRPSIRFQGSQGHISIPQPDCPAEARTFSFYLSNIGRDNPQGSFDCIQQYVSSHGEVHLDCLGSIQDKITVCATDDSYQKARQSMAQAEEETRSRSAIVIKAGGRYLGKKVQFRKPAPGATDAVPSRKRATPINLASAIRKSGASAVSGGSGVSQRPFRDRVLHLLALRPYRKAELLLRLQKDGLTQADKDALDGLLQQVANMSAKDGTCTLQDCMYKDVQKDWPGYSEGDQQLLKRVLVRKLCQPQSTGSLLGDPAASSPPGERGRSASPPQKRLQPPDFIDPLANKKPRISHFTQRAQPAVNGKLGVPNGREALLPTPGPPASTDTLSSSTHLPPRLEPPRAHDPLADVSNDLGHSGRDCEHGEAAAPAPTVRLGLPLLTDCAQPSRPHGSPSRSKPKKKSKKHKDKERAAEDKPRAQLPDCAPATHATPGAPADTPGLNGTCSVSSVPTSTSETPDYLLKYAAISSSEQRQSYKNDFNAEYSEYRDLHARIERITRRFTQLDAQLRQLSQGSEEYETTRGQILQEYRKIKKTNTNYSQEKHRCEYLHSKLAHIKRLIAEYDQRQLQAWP

Chains of the proteins cited; added tags and fusions are not shown. Lines headed by an entry give the natural chain unless they say otherwise; changes in a name come on top.
UniProt P42568: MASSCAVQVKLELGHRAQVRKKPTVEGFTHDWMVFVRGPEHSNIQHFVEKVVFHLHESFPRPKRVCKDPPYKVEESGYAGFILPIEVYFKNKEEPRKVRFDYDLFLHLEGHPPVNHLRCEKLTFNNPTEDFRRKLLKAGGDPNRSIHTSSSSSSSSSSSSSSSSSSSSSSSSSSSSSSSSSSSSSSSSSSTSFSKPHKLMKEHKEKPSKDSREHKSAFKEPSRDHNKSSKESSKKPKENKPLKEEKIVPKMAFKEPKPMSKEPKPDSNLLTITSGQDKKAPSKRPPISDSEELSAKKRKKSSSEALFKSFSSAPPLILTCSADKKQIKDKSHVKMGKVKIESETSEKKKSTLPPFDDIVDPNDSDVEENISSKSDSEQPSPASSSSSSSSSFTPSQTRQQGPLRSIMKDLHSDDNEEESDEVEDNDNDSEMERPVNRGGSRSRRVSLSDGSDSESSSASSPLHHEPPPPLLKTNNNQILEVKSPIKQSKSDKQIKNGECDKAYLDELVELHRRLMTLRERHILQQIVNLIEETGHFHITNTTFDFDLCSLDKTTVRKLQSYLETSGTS
UniProt Q96CJ1: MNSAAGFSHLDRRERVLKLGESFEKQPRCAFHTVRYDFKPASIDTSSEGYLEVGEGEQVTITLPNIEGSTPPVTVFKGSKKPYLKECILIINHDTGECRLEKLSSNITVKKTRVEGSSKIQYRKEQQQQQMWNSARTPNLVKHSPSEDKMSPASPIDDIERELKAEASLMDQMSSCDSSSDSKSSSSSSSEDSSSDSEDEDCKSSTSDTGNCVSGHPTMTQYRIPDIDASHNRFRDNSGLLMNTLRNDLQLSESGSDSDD

[2] = biological target: ELL•CDK9•SEC (293T) (human) (UniProt P55199+P50750); experiment: co-IP; tandem affinity purification from 293T cells: second round (His-CDK9, or the second tagged ELL) from the eluate of the first round; immunoblot
[3] = biological target: T1, endogenous ELL (human (endogenous in 293T)); experiment: co-IP; endogenous proteins from 293T whole cell lysate in BC150 buffer with 0.1% NP-40; target-specific antibody on protein-G magnetic beads, 12 h, 4°C; species-specific IgG as control; some panels after doxorubicin
[4] = biological target: T2, FLAG-ELL (human) (UniProt P55199); experiment: co-IP; 293T cells transiently expressing epitope-tagged proteins, harvested 48 h after transfection; lysis buffer 20 mM Tris-Cl pH 8, 20% glycerol, 2 mM EDTA, 150 mM KCl, 0.1% NP-40; anti-FLAG M2 or anti-HA agarose, 12 h, 4°C; immunoblot. Also the first round of the tandem purifications from 293T. Some panels with doxorubicin, IR, ATM inhibitor, EAF1 or EAF2 knock-down or over-expression
T2 sequence: T1 sequence

[5] = biological target: T3, FLAG-ELL TM (human) (UniProt P55199); experiment: as above
T3 sequence: T1 sequence with T551A, S561A, S589A

[6] = biological target: T4, FLAG-ELL lacking the C-terminal 501–621 (human) (UniProt P55199); experiment: as above
T4 sequence: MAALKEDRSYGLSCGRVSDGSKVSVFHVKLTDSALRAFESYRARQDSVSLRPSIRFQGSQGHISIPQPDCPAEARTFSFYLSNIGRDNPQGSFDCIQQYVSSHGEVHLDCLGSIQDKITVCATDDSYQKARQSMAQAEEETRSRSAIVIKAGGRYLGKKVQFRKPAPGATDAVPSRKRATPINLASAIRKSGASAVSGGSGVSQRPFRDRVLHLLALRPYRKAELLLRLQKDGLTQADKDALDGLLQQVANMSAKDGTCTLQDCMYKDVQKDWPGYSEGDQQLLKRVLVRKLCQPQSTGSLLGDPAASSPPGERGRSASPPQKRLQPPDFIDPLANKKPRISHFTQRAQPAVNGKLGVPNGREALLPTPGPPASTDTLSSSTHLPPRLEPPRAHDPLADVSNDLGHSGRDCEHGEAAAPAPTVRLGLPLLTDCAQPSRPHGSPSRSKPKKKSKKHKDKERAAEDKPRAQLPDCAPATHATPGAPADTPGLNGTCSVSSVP

[7] = biological target: T5, His-ELL (Sf9) (human) (UniProt P55199); experiment: co-IP; Sf9 cells co-infected with baculoviruses, lysis buffer with 300 mM KCl and 0.1% NP-40; first round of precipitation by the tagged ELL (FLAG-ELL or His-ELL), 12 h, 4°C; immunoblot
T5 sequence: T1 sequence

[8] = biological target: ELL•EAF1 complex (Sf9) (human) (UniProt P55199+Q96JC9); experiment: co-IP; Sf9 cells co-infected with baculoviruses; second round of precipitation (His-CDK9, AF9 or FLAG-EAF1) from the eluate of the first round; bound material and supernatant immunoblotted
[9] = biological target: T6, FLAG-ELL (Sf9) (human) (UniProt P55199); experiment: co-IP; Sf9 cells co-infected with baculoviruses, lysis buffer with 300 mM KCl and 0.1% NP-40; first round of precipitation by the tagged ELL (FLAG-ELL or His-ELL), 12 h, 4°C; immunoblot
T6 sequence: T1 sequence

[10] = biological target: ELL•AF9•SEC (Sf9) (human) (UniProt P55199+P42568); experiment: co-IP; Sf9 cells co-infected with baculoviruses; second round of precipitation (His-CDK9, AF9 or FLAG-EAF1) from the eluate of the first round; bound material and supernatant immunoblotted
[11] = biological target: ELL•CDK9•SEC (Sf9) (human) (UniProt P55199+P50750); experiment: as above

binding [1]: binds
binding [2]: no binding
binding [3]: binds
binding [4]: binds
binding [5]: binds
binding [6]: no binding
Substance: endogenous EAF1 (from UniProt Q96JC9 1-268)

binding [7]: binds
binding [8]: no binding
Substance: EAF2 (Sf9) (from UniProt Q96CJ1 1-260)

binding [9]: binds
binding [10]: no binding
binding [11]: no binding
Substance: EAF1 (Sf9) (from UniProt Q96JC9 1-268)

From article PMC9638944, “ATM-mediated ELL phosphorylation enhances its self-association through increased EAF1 interaction and inhibits global transcription during genotoxic stress” (Nucleic Acids Research, 2022)
